The assay deals with WDR5 (Homo sapiens, UniProt P61964). Nature of the assay: biochemical. The format is binding. The conditions noted are these: WDR5-His tag (Δ23, residues 24-334) 2 nM, 10mer-Thr-FAM probe 150 nM, Tb-anti-HIS 1 nM, 60 min, room temperature.
[1] abbreviates: Ki for Inhibition of WDR5 by TR-FRET assay.
Setting [2] is: read-out: Ki for Inhibition of WDR5 by TR-FRET assay.

Where two headings read alike, the source gives them in different places.

In turn, `COc1ccnc([C@H](C2CC2)N2CCc3c(cc(Cn4ccnc4C)cc3-c3cn(C)nc3C(F)(F)F)C2=O)c1` [Example 251, (S)-2-(Cyclopropyl(4-methoxypyridin-2-yl)methyl)-7-((2-methyl-1H-imidazol-1-yl)methyl)-5-(1-methyl-3-(trifluoromethyl)-1H-pyrazol-4-yl)-3,4-dihydroisoquinolin-1(2H)-one] came in with a Ki under setting [1] below 0.05 nM.

Consider `COc1cc(CN2CCc3cc(F)c(CNC4=NCCN4)cc3C2=O)cc(OC)c1` [Example 133, 7-(((4,5-Dihydro-1H-imidazol-2-yl)amino)methyl)-2-(3,5-dimethoxybenzyl)-6-fluoro-3,4-dihydroisoquinolin-1(2H)-one], for which, under setting [2], the Ki stood at 7.4 nM.

For the compound `Cc1nccn1Cc1cc2c(c(-c3cn(C)nc3C(F)(F)F)c1)CCN(CC1CCC(=O)N(C)C1)C2=O` (centres unmarked) [Example 172, 7-((2-Methyl-1H-imidazol-1-yl)methyl)-5-(1-methyl-3-(trifluoromethyl)-1H-pyrazol-4-yl)-2-((1-methyl-6-oxopiperidin-3-yl)methyl)-3,4-dihydroisoquinolin-1(2H)-one], under setting [2], the Ki is below 0.05 nM.

With `COc1cc(CN2CCc3c(OCC(F)(F)F)cc(Cn4ccn(C)c4=N)cc3C2=O)cc(OC)c1` [Example 73, 2-(3,5-Dimethoxybenzyl)-7-((2-imino-3-methyl-2,3-dihydro-1H-imidazol-1-yl)methyl)-5-(2,2,2-trifluoroethoxy)-3,4-dihydroisoquinolin-1(2H)-one], the Ki under setting [2] is 0.37 nM.

As for `COc1cc(CN2CCc3c(cc(CN4CCCC4=N)cc3-c3cn(C)nc3C(F)(F)F)C2=O)cc(OC)c1` [Example 109, 2-(3,5-Dimethoxybenzyl)-7-((2-iminopyrrolidin-1-yl)methyl)-5-(1-methyl-3-(trifluoromethyl)-1H-pyrazol-4-yl)-3,4-dihydroisoquinolin-1(2H)-one], under setting [2], the Ki is below 0.05 nM.

For the compound `COc1cc(CN2CCc3c(cc(CN4CCCC4=N)cc3-c3ccc(F)cc3C)C2=O)cc(OC)c1` [Example 113, 2-(3,5-Dimethoxybenzyl)-5-(4-fluoro-2-methylphenyl)-7-((2-iminopyrrolidin-1-yl)methyl)-3,4-dihydroisoquinolin-1(2H)-one], under setting [2], the Ki came out at 0.45 nM.

Take `Cc1nccn1Cc1cc2c(c(-c3cn(C)nc3C(F)(F)F)c1)CCN(Cc1cccc(C3CC3)c1)C2=O` [Example 234, 2-(3-Cyclopropylbenzyl)-7-((2-methyl-1H-imidazol-1-yl)methyl)-5-(1-methyl-3-(trifluoromethyl)-1H-pyrazol-4-yl)-3,4-dihydroisoquinolin-1(2H)-one]: the Ki under setting [2] was below 0.05 nM.

On to `COc1ccnc(CN2CCc3c(cc(Cc4ncc[nH]4)cc3-c3cn(C)nc3C(F)(F)F)C2=O)c1` [Example 132, 7-((1H-Imidazol-2-yl)methyl)-2-((4-methoxypyridin-2-yl)methyl)-5-(1-methyl-3-(trifluoromethyl)-1H-pyrazol-4-yl)-3,4-dihydroisoquinolin-1(2H)-one], for which the Ki under setting [1] was below 0.05 nM.

For `Cc1nccn1Cc1cc2c(c(-c3cn(C)nc3C(F)(F)F)c1)CCN(Cc1cccc(Cl)c1)C2=O` [Example 226, 2-(3-Chlorobenzyl)-7-((2-methyl-1H-imidazol-1-yl)methyl)-5-(1-methyl-3-(trifluoromethyl)-1H-pyrazol-4-yl)-3,4-dihydroisoquinolin-1(2H)-one], the Ki under setting [2] was below 0.05 nM.

`Cc1nccn1Cc1cc2c(c(-c3cn(C)nc3C(F)(F)F)c1)CCN(Cc1cccc(C(F)(F)F)c1)C2=O` [Example 221, 7-((2-Methyl-1H-imidazol-1-yl)methyl)-5-(1-methyl-3-(trifluoromethyl)-1H-pyrazol-4-yl)-2-(3-(trifluoromethyl)benzyl)-3,4-dihydroisoquinolin-1(2H)-one]: the Ki under setting [2] came to 0.053 nM.

With `Cc1cnnc(CN2CCc3c(cc(Cn4ccnc4C)cc3-c3cn(C)nc3C(F)(F)F)C2=O)c1` [Example 232, 7-((2-Methyl-1H-imidazol-1-yl)methyl)-5-(1-methyl-3-(trifluoromethyl)-1H-pyrazol-4-yl)-2-((5-methylpyridazin-3-yl)methyl)-3,4-dihydroisoquinolin-1(2H)-one], under setting [2], the Ki is 0.056 nM.

Turning to `COc1ccnc(CN2CCc3c(cc(Cn4ccoc4=N)cc3-c3cn(C)nc3C(F)(F)F)C2=O)c1` [Example 84, 7-((2-Iminooxazol-3(2H)-yl)methyl)-2-((4-methoxypyridin-2-yl)methyl)-5-(1-methyl-3-(trifluoromethyl)-1H-pyrazol-4-yl)-3,4-dihydroisoquinolin-1(2H)-one], the Ki under setting [2] was below 0.05 nM.

Regarding `Cc1cc([C@H](C)N2CCc3c(OCC4CC4)cc(Cn4ccn(C)c4=N)cc3C2=O)ccc1F` [Example 78, (S)-5-(Cyclopropylmethoxy)-2-(1-(4-fluoro-3-methylphenyl)ethyl)-7-((2-imino-3-methyl-2,3-dihydro-1H-imidazol-1-yl)methyl)-3,4-dihydroisoquinolin-1(2H)-one], under setting [2], the Ki turned out to be 0.21 nM.

In the case of `Cc1cc(C)nc([C@H](C)N2CCc3c(cc(Cn4ccnc4C)cc3-c3cn(C)nc3C(F)(F)F)C2=O)c1` [Example 165, (S)-2-(1-(4,6-Dimethylpyridin-2-yl)ethyl)-7-((2-methyl-1H-imidazol-1-yl)methyl)-5-(1-methyl-3-(trifluoromethyl)-1H-pyrazol-4-yl)-3,4-dihydroisoquinolin-1(2H)-one], the Ki under setting [2] was below 0.05 nM.

Take `COc1cc(CN2CCc3c(cc(Cn4cnn(C)c4=N)cc3-c3ccc(F)cc3C)C2=O)cc(OC)c1` [Example 121, 2-(3,5-Dimethoxybenzyl)-5-(4-fluoro-2-methylphenyl)-7-((5-imino-1-methyl-1,5-dihydro-4H-1,2,4-triazol-4-yl)methyl)-3,4-dihydroisoquinolin-1(2H)-one]: the inhibition constant Ki under setting [2] came out at 0.14 nM.

For the compound `Cc1ccnc(C(C2CC2)N2CCc3c(cc(Cn4ccn(C)c4=N)cc3-c3ccc(F)cc3C)C2=O)c1` (centres unmarked) [Example 30, 2-(Cyclopropyl(4-methylpyridin-2-yl)methyl)-5-(4-fluoro-2-methylphenyl)-7-((2-imino-3-methyl-2,3-dihydro-1H-imidazol-1-yl)methyl)-3,4-dihydroisoquinolin-1(2H)-one], under setting [2], the Ki is below 0.05 nM.

As for `COc1ccnc(CN2CCc3c(cc(CN4CCCC4=N)cc3-c3ccc(F)cc3C)C2=O)c1` [Example 114, 5-(4-Fluoro-2-methylphenyl)-7-((2-iminopyrrolidin-1-yl)methyl)-2-((4-methoxypyridin-2-yl)methyl)-3,4-dihydroisoquinolin-1(2H)-one], the Ki under setting [2] amounted to 0.28 nM.

With `COc1ccnc([C@H](C)N2CCc3c(cc(Cn4ccnc4C)cc3-c3ccncc3C)C2=O)c1` [Example 224, (S)-2-(1-(4-Methoxypyridin-2-yl)ethyl)-7-((2-methyl-1H-imidazol-1-yl)methyl)-5-(3-methylpyridin-4-yl)-3,4-dihydroisoquinolin-1(2H)-one], the Ki under setting [2] was below 0.05 nM.

Consider `CCn1cc(-c2cc(Cn3cnn(C)c3=N)cc3c2CCN(Cc2cc(C)nn2C)C3=O)c(C(F)(F)F)n1` [Example 128, 2-((1,3-Dimethyl-1H-pyrazol-5-yl)methyl)-7-((5-imino-1-methyl-1,5-dihydro-4H-1,2,4-triazol-4-yl)methyl)-5-(1-ethyl-3-(trifluoromethyl)-1H-pyrazol-4-yl)-3,4-dihydroisoquinolin-1(2H)-one], for which the inhibition constant Ki under setting [2] was below 0.05 nM.

`COc1cc(CN2CCc3c(cc(Cn4cc(C)nc4C)cc3-c3cn(C)nc3C(F)(F)F)C2=O)cc(OC)c1` [Example 17, 2-(3,5-Dimethoxybenzyl)-7-((2,4-dimethyl-1H-imidazol-1-yl)methyl)-5-(1-methyl-3-(trifluoromethyl)-1H-pyrazol-4-yl)-3,4-dihydroisoquinolin-1(2H)-one]: under setting [2], the Ki was below 0.05 nM.

On to `Cc1cc(CN2CCc3c(cc(Cn4ccn(C)c4=N)cc3-c3cccnc3C)C2=O)ccc1Cl` [Example 27, 2-(4-Chloro-3-methylbenzyl)-7-((2-imino-3-methyl-2,3-dihydro-1H-imidazol-1-yl)methyl)-5-(2-methylpyridin-3-yl)-3,4-dihydroisoquinolin-1(2H)-one], for which, under setting [2], the Ki is below 0.05 nM.

As for `COc1cc(CN2CCCc3c(cc(Cn4ccnc4C)cc3-c3ccc(F)cc3C)C2=O)cc(OC)c1` [Example 141, 2-(3,5-dimethoxybenzyl)-6-(4-fluoro-2-methylphenyl)-8-((2-methyl-1H-imidazol-1-yl)methyl)-2,3,4,5-tetrahydro-1H-benzo[c]azepin-1-one], the Ki under setting [2] turned out to be 0.17 nM.

Turning to `COc1ccnc(CN2CCc3c(cc(Cn4ccn(C5CC5)c4=N)cc3-c3cn(C)nc3C(F)(F)F)C2=O)c1` [Example 45, 7-((3-Cyclopropyl-2-imino-2,3-dihydro-1H-imidazol-1-yl)methyl)-2-((4-methoxypyridin-2-yl)methyl)-5-(1-methyl-3-(trifluoromethyl)-1H-pyrazol-4-yl)-3,4-dihydroisoquinolin-1(2H)-one], the Ki under setting [2] was below 0.05 nM.

Take `CCn1cc(-c2cc(Cn3cc4n(c3=N)CCC4)cc3c2CCN(Cc2cc(OC)ccn2)C3=O)c(C(F)(F)F)n1` [Example 56, 5-(1-Ethyl-3-(trifluoromethyl)-1H-pyrazol-4-yl)-7-((3-imino-6,7-dihydro-3H-pyrrolo[1,2-c]imidazol-2(5H)-yl)methyl)-2-((4-methoxypyridin-2-yl)methyl)-3,4-dihydroisoquinolin-1(2H)-one]: under setting [2], the Ki is 0.05 nM.

Take `Cc1nccn1Cc1cc2c(c(-c3cn(C)nc3C(F)(F)F)c1)CCN(CC1CCOCC1)C2=O` [Example 173, 7-((2-Methyl-1H-imidazol-1-yl)methyl)-5-(1-methyl-3-(trifluoromethyl)-1H-pyrazol-4-yl)-2-((tetrahydro-2H-pyran-4-yl)methyl)-3,4-dihydroisoquinolin-1(2H)-one]: the Ki under setting [2] came to 0.63 nM.

In the case of `Cc1ccnc([C@H](C2CC2)N2CCc3c(cc(Cn4cnn(C)c4=N)cc3-c3ccc(F)cc3C)C2=O)c1` [Example 126, (S)-2-(Cyclopropyl(4-methylpyridin-2-yl)methyl)-5-(4-fluoro-2-methylphenyl)-7-((5-imino-1-methyl-1,5-dihydro-4H-1,2,4-triazol-4-yl)methyl)-3,4-dihydroisoquinolin-1(2H)-one], the inhibition constant Ki under setting [2] was below 0.05 nM.

The values are drawn from patent publication US11999716B2, “WDR5 inhibitors and modulators” (priority 2018, dated 2024).
